Our source for the ETS1 binding intensity values is the supplement of paper PMC10681739.

± gives the standard deviation of the averaged measurements. Whole data set: some 4,100 sequences, median “arbitrary fluorescence units” near 780, cut for the highest 2% near 22,000. The list shows a part of the results.

The test has as its target T1, ETS1 (UniProt P14921).
T1 sequence: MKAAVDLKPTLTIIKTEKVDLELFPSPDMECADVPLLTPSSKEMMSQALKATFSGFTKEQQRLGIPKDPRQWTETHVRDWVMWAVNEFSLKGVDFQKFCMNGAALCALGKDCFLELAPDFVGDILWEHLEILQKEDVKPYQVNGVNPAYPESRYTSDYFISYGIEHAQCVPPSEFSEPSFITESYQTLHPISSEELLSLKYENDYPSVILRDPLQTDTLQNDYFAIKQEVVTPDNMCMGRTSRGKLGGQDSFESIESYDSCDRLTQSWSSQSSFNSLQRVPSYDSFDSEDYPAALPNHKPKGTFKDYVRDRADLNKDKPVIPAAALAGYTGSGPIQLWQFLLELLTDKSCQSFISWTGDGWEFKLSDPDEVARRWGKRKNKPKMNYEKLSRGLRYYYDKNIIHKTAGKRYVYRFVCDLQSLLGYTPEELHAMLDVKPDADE
Briefly: ETS1 binding intensity (PBM fluorescence), ETS1 alone (arbitrary fluorescence units); higher = stronger binding. The note with it: ETS1 concentration 1 nM; RUNX1 concentration 0 nM. The essentials:
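Double-stranded Agilent 4 × 180k arrays held 36-bp genomic probes whose RUNX1 partner site was mutated, and these were incubated with 1 nM full-length recombinant human ETS1 in the absence of RUNX1 under standard PBM protocols. Bound protein was labelled with anti-ETS1 antibody (Cell Signaling Technology 14069) plus an Alexa488-conjugated secondary and read on a GenePix 4400A, with four spots printed per sequence. Binding level is reported as raw spot fluorescence intensity summarised over replicate spots.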
Sequence GCGAGAGGGAGGAAGTGACTCACCAACCCCAACAAA yielded an ETS1 binding intensity of 2690.

Sequence AGATGGTGTGGCCGGATGGGGACCAGATTGAAGAGA returned an ETS1 binding intensity of 1050.

Sequence ACGGTAATAATCACACACACTTCCTCTTAATCAGTG gave an ETS1 binding intensity of 1730.

For CTCCGCGCAGCCCCAGAGACCCTTGGGAAGTGTGGT, the ETS1 binding intensity is 320.

In the case of CCGGGACTGCGTACTCGTCCTTCTTTCCCGTTAGTC, the ETS1 binding intensity turned out to be 419.

Sequence TCCCTCCTCCGCTCAGACCCACTTCCTGTCTGCTTC gave an ETS1 binding intensity of 8330.

Sequence AAGGTCGCTGAGGGGATGGGGGCCGGAAATCTCCTC came in with an ETS1 binding intensity of 1910.

GGCCCGGCCGGAAGAAGCCACCTCCCCCGCGCGCGT displayed an ETS1 binding intensity of 3440.

In turn, TTGGAGGCGGAAACAGGCACCGAAAGCGGAGGAAGG had an ETS1 binding intensity of 2190.

GCCCAGGCAGGAAGCCAGGCGCTCACAGGTTGGCAG displayed an ETS1 binding intensity of 1930.

Sequence GTGTGGTGCTGGGGTGCAGCCCCAGGAAACACGTGC returned an ETS1 binding intensity of 434.

With CAAGGGAGGGGGGTTACTAGGAAGTGAAAGGCGGAG, the ETS1 binding intensity amounted to 1340.

Sequence ACTACATTTCCCAGACAGCCTCGCGGCGGCCCGGGC displayed an ETS1 binding intensity of 370.

In turn, TCCGAGGCCTGCAGGAACGCCAGGAAGCCTAGGCCG showed an ETS1 binding intensity of 372.

In the case of GAGTGGGCGCTAACTCGCAGGCCGGACGTGACGCAA, the ETS1 binding intensity worked out at 659.

CCGAGGATTTTGGGAGATGTAGTTTTTCCGGCGCCT yielded an ETS1 binding intensity of 393.

AATCCACTTCCCCGGGTTTTGGGAGGGGGCCCCAGC returned an ETS1 binding intensity of 1080.

Turning to GCCACTTCCGGTCACTCCCCTCAGCGGCCTCGCGCT, the ETS1 binding intensity was found to be 39600.

GGCTCAAAATCACAGAGAAGCTTCCTATAGTGGGAT displayed an ETS1 binding intensity of 413.

With GCCAGGAAGCCAAGGTCGCGCCCTCCACCTCAGGTC, the ETS1 binding intensity was found to be 441.

As to CCACTCCAGGAAACTCCTCCAGGTGAGCCCAGAACT, the ETS1 binding intensity was found to be 828.

CCACCGTGCTGTAAACTGCACTTCCTCACTTAGCAC displayed an ETS1 binding intensity of 870.

The sequence CACTTCCTGTCAAAGCCAGTTCCTTAGCCGCTTAGG had an ETS1 binding intensity of 45000.

In the case of AGCCAGCGCGGCGAGGTGGATCGTGATTCCGGCCCG, the ETS1 binding intensity came out at 281.

With CATCCCAAACGCCTTTCCGGAGCCACGAAGACAGGA, the ETS1 binding intensity was determined as 1050.

In turn, CATGTGCTTCCGGCTTGATCTGTCGTTATTCTGGTT displayed an ETS1 binding intensity of 13400.

In turn, CTTGCGCTCACAGAGCCCGCCACTTCCGCCTCACAG had an ETS1 binding intensity of 3690.

As to CTCTCTGGGCGGAAGGAACGCGATCACCCTGAGAAA, the ETS1 binding intensity amounted to 689.

CCCTACTGCGTGAGGTGGCAGCTTCCTTACGGCAGT gave an ETS1 binding intensity of 379.

As for CGGGCCCGTAGATATCACACCCACCCGGAAGTCCTC, the ETS1 binding intensity is 736.

Sequence GCGCATCCGGGTCACGCTAACGCCGAGGTCTCCTCC displayed an ETS1 binding intensity of 14200.

As to GTGGATTTCACATCCTGTCCTAGGGGTATGTTTGTC, the ETS1 binding intensity is 11500.

Sequence CTGATTGGCTTCGGCCAGGCCGTTTCCGGTGGAGCT returned an ETS1 binding intensity of 9390.

With GACTTCCTTCTCCACATACCTGAAAGTGCTTTCTGG, the ETS1 binding intensity was 7100.

With GGCACAGGCTCAACGCGCAGGCAGGAAGCAGCGGTA, the ETS1 binding intensity stood at 717.

GCGGAGCCGGACGGTAAAGACCCCTCAGCCCTGCTC: the ETS1 binding intensity was determined as 295.

For the sequence CCTGCACTTGGCCGCCGCCAGCTTGTTCCGCTCGCT, the ETS1 binding intensity turned out to be 334.

For CCCCCTGAACATCCGGGGCCTTTTAAACGCCCACGG, the ETS1 binding intensity is 7660.

The sequence ACCCGACCTACAAGCGACCCTGCAGGAAGGGCTGGG yielded an ETS1 binding intensity of 448.

On to TTCAGGAAATGCAAACGGCTGCAGAGACTGCAGAGG, for which the ETS1 binding intensity stood at 1220.

TCTGTCGCACATCCGGTGTGAGCTTCGGGGCGGTGG yielded an ETS1 binding intensity of 22500.

GGGTCTCCAGGAAGGTTGGAGCTGAACCGGCGCTGC yielded an ETS1 binding intensity of 324.

In turn, TCGCACTGTCTGTCGTTCTCTCCTTCCTGTCAGCTG gave an ETS1 binding intensity of 1090.

For the sequence CTGGCTACAGGAAAAACAAAGTCAAACTACAGCACT, the ETS1 binding intensity turned out to be 396.

For GCTGCCAGGTGGCAACAGCGCACAGGAAACGAGACT, the ETS1 binding intensity turned out to be 984.

Sequence TCAGAGACTTCCGCTCAGCAGCAGCTTCGGCCAGGC returned an ETS1 binding intensity of 17200.

CGAGCGCAGGATGGGGTTGTCGAACGCGCGGCGAGC gave an ETS1 binding intensity of 387.

With CAGGCCGAAGGGGAGAGGCACGTCCAGGAAGATCTA, the ETS1 binding intensity amounted to 393.

Turning to GATGTGACTTGCCAAAAAAAAGCATATCCTTGGGTG, the ETS1 binding intensity stood at 392.

CAGTTTACAGCACGGTGGGGCCTGTCTCCGGAATCG had an ETS1 binding intensity of 456.

AGTCGGAAGCCATCTGCCCCAACTTGGGGTCTTCAC displayed an ETS1 binding intensity of 337.

Take TCCTCTCTCTTCCTCCCTCTGGCTACAAGCTGTGCC: the ETS1 binding intensity was 877.

With GTGGCGGGGCGGAAGTTCACATGTGTGATATGTAGA, the ETS1 binding intensity worked out at 5430 ± 610.

The sequence CTTCAGGAGACAACAGTTCTCAGGCTTCCTCCCTTC gave an ETS1 binding intensity of 353.

Regarding GCGCGCTGTAGCAATTGGAGGACCCAGGAAGAAGGG, the ETS1 binding intensity turned out to be 346.

With TTGCAAGAAATCGCTGGCCATGGCACTTCCCAGTGT, the ETS1 binding intensity came out at 371.

For the sequence CACGGTCTTTGCCGCTCAGCTTCCCGGAGTCCGCGC, the ETS1 binding intensity was 458.

On to AGCGATTTCCTTCTCGGGCCCCTGGGCTTCGGCAGT, for which the ETS1 binding intensity worked out at 2950.

For the sequence GCCGCCGCCGTAGGCCCCAGACCGGAAGTGAATGCC, the ETS1 binding intensity came out at 12600.

CCGGGCTGCGGAAGGCGGGAATTCTGCTGTTCGCGG came in with an ETS1 binding intensity of 380 ± 24.

For the sequence AGGGATGCTGGGAAATGTAGTCCAGCCCCAAGCCAA, the ETS1 binding intensity worked out at 321.

The sequence TGGGAGACCCCAAAGCCCAAGGCGGAAGCCATGTCA gave an ETS1 binding intensity of 390.
